According to patent publication US20240016784A1, “Y BOX BINDING PROTEIN 1 INHIBITORS” (Oregon Health & Science University, priority 2020, published 2024):

Tested on: OVCAR8 scrambled control (SC) cells
Assay: Cell viability assay, transduced OVCAR8 cells
Conditions: Homo sapiens, OVCAR-8, read-out: IC50 (cell viability)

O=C1OCC2=C1C(c1cccc(F)c1)c1cc3c(cc1N2CCO)OCO3 (stereo not shown) [SU056, 9-(3-fluorophenyl)-5-(2-hydroxyethyl)-6,9-dihydro-[1,3]dioxolo[4,5-g]furo[3,4-b]quinolin-8(5H)-one]
IC50: 3.54 µM
